# The other results are listed elsewhere or left out.
# Legend:
# Test in all cases: glycan array binding signal (z-score within array); higher = stronger binding
# Conditions in all cases: glycan notation: IUPAC condensed, linker removed
# [1] = molecular target: Fuc(a1-2)Gal
# How it was run: (§1)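 Columns mapping to the same glycan were averaged after glycan names were converted to IUPAC-condensed notation. The data come from 3228 arrays in the Consortium for Functional Glycomics database, limited to those with an available protein sequence. Binding is reported as a within-array Z-score averaged across arrays of one protein sequence and across linkers.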
# [2] = molecular target: Fuc(a1-2)Gal(b1-3)GalNAc
# How it was run: as §1
# [3] = molecular target: Fuc(a1-2)Gal(b1-3)GalNAc(a1-3)[Fuc(a1-2)]Gal(b1-4)Glc
# How it was run: as §1
# [4] = molecular target: Fuc(a1-2)Gal(b1-3)GalNAc(a1-3)[Fuc(a1-2)]Gal(b1-4)GlcNAc
# How it was run: as §1
# [5] = molecular target: Fuc(a1-2)Gal(b1-3)GalNAc(b1-3)Gal
# How it was run: as §1
# [6] = molecular target: Fuc(a1-2)Gal(b1-3)GalNAc(b1-3)Gal(a1-4)Gal(b1-4)Glc
# How it was run: as §1
# [7] = molecular target: Fuc(a1-2)Gal(b1-3)GalNAc(b1-4)[Neu5Ac(a2-3)]Gal(b1-4)Glc
# How it was run: as §1
# [8] = molecular target: Fuc(a1-2)Gal(b1-3)GlcNAc
# How it was run: as §1
# [9] = molecular target: Fuc(a1-2)Gal(b1-3)GlcNAc(b1-2)Man(a1-3)[Fuc(a1-2)Gal(b1-3)GlcNAc(b1-2)Man(a1-6)]Man(b1-4)GlcNAc(b1-4)GlcNAc
# How it was run: as §1
# [10] = molecular target: Fuc(a1-2)Gal(b1-3)GlcNAc(b1-2)Man(a1-3)[Fuc(a1-2)Gal(b1-3)GlcNAc(b1-2)Man(a1-6)]Man(b1-4)GlcNAc(b1-4)[Fuc(a1-6)]GlcNAc
# How it was run: as §1
# [11] = molecular target: Fuc(a1-2)Gal(b1-3)GlcNAc(b1-3)Gal(b1-4)Glc
# How it was run: as §1
# [12] = molecular target: Fuc(a1-2)Gal(b1-3)GlcNAc(b1-3)GalNAc
# How it was run: as §1
# [13] = molecular target: Fuc(a1-2)Gal(b1-3)GlcNAc(b1-3)[Fuc(a1-2)Gal(b1-3)GlcNAc(b1-6)]GalNAc
# How it was run: as §1
# [14] = molecular target: Fuc(a1-2)Gal(b1-3)GlcNAc(b1-3)[Gal(b1-4)GlcNAc(b1-6)]Gal(b1-4)Glc
# How it was run: as §1
# [15] = molecular target: Fuc(a1-2)Gal(b1-3)GlcNAc(b1-3)[Neu5Ac(a2-6)Gal(b1-4)GlcNAc(b1-6)]Gal(b1-4)Glc
# How it was run: as §1
# [16] = molecular target: Fuc(a1-2)Gal(b1-3)GlcNAc6S
# How it was run: as §1
# [17] = molecular target: Fuc(a1-2)Gal(b1-3)[Fuc(a1-4)]GlcNAc
# How it was run: as §1
# [18] = molecular target: Fuc(a1-2)Gal(b1-3)[Fuc(a1-4)]GlcNAc(b1-2)Man(a1-3)[Fuc(a1-2)Gal(b1-3)[Fuc(a1-4)]GlcNAc(b1-2)Man(a1-3)]Man(b1-4)GlcNAc(b1-4)GlcNAc
# How it was run: as §1
# [19] = molecular target: Fuc(a1-2)Gal(b1-3)[Fuc(a1-4)]GlcNAc(b1-2)Man(a1-3)[Fuc(a1-2)Gal(b1-3)[Fuc(a1-4)]GlcNAc(b1-2)Man(a1-6)]Man(b1-4)GlcNAc(b1-4)[Fuc(a1-6)]GlcNAc(b1-4)[Fuc(a1-6)]GlcNAc
# How it was run: as §1
# [20] = molecular target: Fuc(a1-2)Gal(b1-3)[Fuc(a1-4)]GlcNAc(b1-3)[Fuc(a1-3)[Gal(b1-4)]GlcNAc(b1-6)]Gal(b1-4)Glc
# How it was run: as §1
# [21] = molecular target: Fuc(a1-2)Gal(b1-3)[Fuc(a1-4)]GlcNAc(b1-3)[Gal(b1-4)GlcNAc(b1-6)]Gal(b1-4)Glc
# How it was run: as §1
# [22] = molecular target: Fuc(a1-2)Gal(b1-4)Glc
# How it was run: as §1
# [23] = molecular target: Fuc(a1-2)Gal(b1-4)Glc6S
# How it was run: as §1
# [24] = molecular target: Fuc(a1-2)Gal(b1-4)GlcNAc
# How it was run: as §1
# [25] = molecular target: Fuc(a1-2)Gal(b1-4)GlcNAc(b1-2)Man
# How it was run: as §1
# [26] = molecular target: Fuc(a1-2)Gal(b1-4)GlcNAc(b1-2)Man(a1-3)[Fuc(a1-2)Gal(b1-4)GlcNAc(b1-2)Man(a1-6)]Man(b1-4)GlcNAc(b1-4)GlcNAc
# How it was run: as §1
# [27] = molecular target: Fuc(a1-2)Gal(b1-4)GlcNAc(b1-2)Man(a1-3)[Fuc(a1-2)Gal(b1-4)GlcNAc(b1-2)Man(a1-6)]Man(b1-4)GlcNAc(b1-4)[Fuc(a1-6)]GlcNAc
# How it was run: as §1
# [28] = molecular target: Fuc(a1-2)Gal(b1-4)GlcNAc(b1-2)[Fuc(a1-2)Gal(b1-4)GlcNAc(b1-4)]Man(a1-3)[Fuc(a1-2)Gal(b1-4)GlcNAc(b1-2)Man(a1-6)]Man(b1-4)GlcNAc(b1-4)GlcNAc
# How it was run: as §1
# [29] = molecular target: Fuc(a1-2)Gal(b1-4)GlcNAc(b1-3)Gal(b1-4)GlcNAc
# How it was run: as §1
# [30] = molecular target: Fuc(a1-2)Gal(b1-4)GlcNAc(b1-3)Gal(b1-4)GlcNAc(b1-2)Man(a1-3)[Fuc(a1-2)Gal(b1-4)GlcNAc(b1-3)Gal(b1-4)GlcNAc(b1-2)Man(a1-6)]Man(b1-4)GlcNAc(b1-4)GlcNAc
# How it was run: as §1
binder,measurement,setting,value
PX9937J-pdi-523-26-523 (Parabacteroides distasonis) (protein) EPVSSISDANYWKSPDLFKAFNIGLHGLLRSQSSYNIFVLGEPRSDIYGDQPFGGEATQGVERFSYNTINAEFTGISNFANFYTTLNQINLMIRRTNETDLLGEAEKNYYLGQAYGLRAYIYFHLLRSWGDVIITTEPTLGSELDISHLDKAASPASEVMDLIKKDIDASEKAFGGDYSYKQGKCYWSKPATLMLKGEVYLWSGRQMGGGTGDYTVAKTALQDLQQNGNLKLQEKFTDVFSFNNKENSEMIFALHSGKEDDFMMWRDYNWRNNMVPQREYMAGYCDETGTPFLEIPGYNLQGLMRYQVKKDHYLKSFREGDTRLKGTLKAVYKKHEDGTLEYIAPIQYKFQGTTLEGSNERSWYDDYPIYRYADALLLLAEAKALLGEDPSTEINAVRERAYGSEYFNAHKNEVAYPNDKGSFYNDNPFEAGDENVMEAILKERLREFFFEGKRWYDLRRFGKDYVLKYTTAQESRLLWPINEGALTNNPALKQTPGY,glycan array binding signal (z-score),[1],0.023
same,glycan array binding signal (z-score),[2],-0.27
same,glycan array binding signal (z-score),[3],-0.166
same,glycan array binding signal (z-score),[4],-0.617
same,glycan array binding signal (z-score),[5],0.075
same,glycan array binding signal (z-score),[6],-0.291
same,glycan array binding signal (z-score),[7],-0.095
same,glycan array binding signal (z-score),[8],-0.435
same,glycan array binding signal (z-score),[9],0.513
same,glycan array binding signal (z-score),[10],-0.51
same,glycan array binding signal (z-score),[11],-0.373
same,glycan array binding signal (z-score),[12],-0.419
same,glycan array binding signal (z-score),[13],-0.127
same,glycan array binding signal (z-score),[14],-0.605
same,glycan array binding signal (z-score),[15],-0.634
same,glycan array binding signal (z-score),[16],-0.687
same,glycan array binding signal (z-score),[17],-0.325
same,glycan array binding signal (z-score),[18],0.203
same,glycan array binding signal (z-score),[19],-0.375
same,glycan array binding signal (z-score),[20],0.154
same,glycan array binding signal (z-score),[21],-0.518
same,glycan array binding signal (z-score),[22],-0.379
same,glycan array binding signal (z-score),[23],-0.759
same,glycan array binding signal (z-score),[24],-0.351
same,glycan array binding signal (z-score),[25],-0.1
same,glycan array binding signal (z-score),[26],-0.132
same,glycan array binding signal (z-score),[27],0.953
same,glycan array binding signal (z-score),[28],-0.052
same,glycan array binding signal (z-score),[29],-0.477
same,glycan array binding signal (z-score),[30],0.281

# Reference: the supplement of paper PMC8728848
